Results published in the RNAGym collection of RNA variant scans (doi:10.1073/pnas.2313332121).
This sample is rich in variants without activity.

B1: TPR 5TU (parent)
chain: GGAUCUUCUCGAUCUAACAAAAAAGACAAAUCUGCCACAAAGCUUGAGAGCAUCUUCGGAUGCAGAGGCGGCAGCCUUCGGUGGCGCGAUAGCGCCAACGUUCUCAACUAUGACACGCAAAACGCGUGCUCCGUUGAAUGGAGUUUAUCAUG

Variants of: B1
Assay: polymerase ribozyme fitness, log enrichment relative to wild type (log ratio); higher = more active; in vitro selection for triplet polymerase activity
Method in brief: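 One round of in vitro selection, in triplicate, was applied to PCR-built, transcribed mutant libraries of each subunit of a heterodimeric triplet polymerase ribozyme. The steps were annealing with a biotinylated primer, partner subunit and triplets, incubation frozen at −7 °C, gel excision of extended constructs, streptavidin-bead capture and RT-PCR. Fitness is the logarithm, base 2, of genotype enrichment over wild-type enrichment from inverse-variance-weighted replicate averages of Illumina-sequenced inputs and outputs, keeping genotypes with ≥10 input reads and ≥1 read per output.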

Row | Variant | polymerase ribozyme fitness (log ratio)
1 | C27U G88U C93G C95G | ≤ -4.2
2 | A28U A30C C32A A47C G58C C85U A107U | ≤ -4.2
3 | A28U G46C C51G U61G C87G U102A A119U G128U A138C | ≤ -4.2
4 | C27U U33G A66U A91C C93U A106G A150U | ≤ -4.2
5 | A29G C57U G80A U111C C118U | ≤ -4.2
6 | A28U G59U C93U C114G | ≤ -4.2
7 | A28U A41U C57A G70C G88U A89U C95A | ≤ -4.2
8 | A28G U45C U56A A64U G71U C79G G83C | ≤ -4.2
9 | A29G U55G A91G C95A U101G | ≤ -4.2
10 | A28U C32G A41C A49C C76U G86U U135A U139A U151G | ≤ -4.2
11 | C27U C79U C87G U90C C96U A121U U134G | ≤ -4.2
12 | A29G U78G G84C | ≤ -4.2
13 | C27U U33A G92C | -3.92
14 | A29C A40G C123A U127A | ≤ -4.2
15 | A29C C38U A39C C96A C103U U111G A138G | ≤ -4.2
16 | A28C A37G C69G G133U U135G G141U | ≤ -4.2
17 | A29G A41C A60U C85G G86U C116G G133C A142G A150G | ≤ -4.2
18 | A29U C35U C69U G83U C105A C125U U144C | ≤ -4.2
19 | A29C A52C U53A C54U C75G C129A | ≤ -4.2
20 | A28U A121C | ≤ -4.2
21 | A28C U151A | ≤ -4.2

Row | Variant | polymerase ribozyme fitness (log ratio)
22 | A29G C43U U45A A52C C75G A91U A115G U151G | ≤ -4.2
23 | A28C A39C U55A U56A C96G C105U U111A | ≤ -4.2
24 | A28C U53A U55A U78A | ≤ -4.2
25 | C27U G62U A120C A122U | -2.46
26 | A29C U44A C95G C114A | ≤ -4.2
27 | A28C U31C U144G A147U | ≤ -4.2
28 | A29G C57A G58U C95U C125G | ≤ -4.2
29 | C27U C54G G86A A119U | ≤ -4.2
30 | A29U G59C C76U C85G A113G A138G | ≤ -4.2
31 | A28G A30U C32A C85A C95U A115U | ≤ -4.2
32 | A28U A41C C57A | ≤ -4.2
33 | A29U C85A C95U A119C | ≤ -4.2
34 | A29U A66G U78A C93G C99A | ≤ -4.2
35 | A28C G42A G58C C93A A120G | ≤ -4.2
36 | C27U C63G C95U C96U C99G | -3.33
37 | C27U A138G U145C | ≤ -4.2
38 | A28U A29C U77G G88A C149A | ≤ -4.2
39 | A28U C43U U77C G83U | ≤ -4.2
40 | A28U C87G C118G | ≤ -4.2
41 | A29G A47C U55G | ≤ -4.2
42 | C27U C75G C85A C105G U130G U146G | ≤ -4.2

Row | Variant | polymerase ribozyme fitness (log ratio)
43 | A29C U33G G34U G50C G84C G100C C108A A113U G141U | ≤ -4.2
44 | A29U C93A A119U G128A | ≤ -4.2
45 | A28G A37G C87G C116U A119C | ≤ -4.2
46 | A28G U44A G83C A147G | ≤ -4.2
47 | A28U U44A C93A | ≤ -4.2
48 | C27U G42U G59C G84A | ≤ -4.2
49 | A28U C51A A52C C99U A106G A120U | ≤ -4.2
50 | C27U G58A A60G G84U | -1.42
51 | A29G A52C C93A U148A | ≤ -4.2
52 | A29U A37C G124C | ≤ -4.2
53 | A29G A52C G92U A107U G133U G141A G143A | ≤ -4.2
54 | A28C U77A C87G U144A | ≤ -4.2
55 | A29U G88C U111G U145C U148C | ≤ -4.2
56 | A29G A41C U102A G141U G152A | ≤ -4.2
57 | A28C A73C U78G G86C C114A A120U G136U | ≤ -4.2
58 | A29U C51U G94A C99G | ≤ -4.2
59 | A29G U56A C76A C96G | ≤ -4.2
60 | A29G G46C G67C A121U | ≤ -4.2
61 | A29U G46U U61G A66U C85A U148G | ≤ -4.2
62 | A28U A52U G140U A142U | ≤ -4.2
63 | A28G A37C C38A U56A A66C A122U U148G | ≤ -4.2

Row | Variant | polymerase ribozyme fitness (log ratio)
64 | A29U A41C C51U G70A | ≤ -4.2
65 | A28U A41U G50C G84A C99G U127C A150U | ≤ -4.2
66 | A28U U77A G83U U134A | ≤ -4.2
67 | A29C U31G C87A U139G | ≤ -4.2
68 | C27U C85A C93G G126A | ≤ -4.2
69 | A28C A60G C69U G74A U135G A138U G141U | ≤ -4.2
70 | A29U G48A G50C G83C A120U G133C | ≤ -4.2
71 | A29G A47G G50C G70A G74A C85A C108G | ≤ -4.2
72 | C27U C51A C54U C87U C95A G126U G133C | ≤ -4.2
73 | A29U G58C G84A C105U A113C | ≤ -4.2
74 | A28U C87A | ≤ -4.2
75 | C27U C85G G140C | ≤ -4.2
76 | A29U C38A G88C C114G | ≤ -4.2
77 | A28C A60G C75G A119C A120C G140U | ≤ -4.2
78 | C27U G67A G86A G136A U145C | ≤ -4.2
79 | A28C G83A | ≤ -4.2
80 | A28U C54G C72U | ≤ -4.2
81 | A28C U82G C85U G117U | ≤ -4.2
82 | A28U G50C C79G G81U C87A U102G C103G G124C A137G | ≤ -4.2
83 | C27U U61G A64U C96U | ≤ -4.2
84 | A28U C63A G84U C118U | ≤ -4.2
